This note sets out measurements from paper PMC12820563, “FoxP3 forms a head-to-head dimer in vivo and stabilizes its multimerization on adjacent microsatellites”.

The list shows a part of the results.

This assay deals with T1, MBP-FoxP1dN (Mus musculus, UniProt P58462 326-579).
T1 sequence: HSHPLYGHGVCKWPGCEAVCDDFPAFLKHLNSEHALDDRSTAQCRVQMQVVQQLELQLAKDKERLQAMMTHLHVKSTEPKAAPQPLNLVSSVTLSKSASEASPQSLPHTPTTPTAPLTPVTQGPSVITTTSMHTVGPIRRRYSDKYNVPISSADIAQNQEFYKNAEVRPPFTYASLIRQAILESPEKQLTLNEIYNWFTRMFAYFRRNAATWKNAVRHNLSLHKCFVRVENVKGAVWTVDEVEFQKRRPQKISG
The assay is described as follows: PD-seq (MBP pull-down with sequencing); 20 mM Tris-HCl pH 7.5, 100 mM NaCl, 1.5 mM MgCl2, 0.4 uM protein, 0.1 uM dsDNA library, 30 min, room temperature, amylose pull-down; high values mean tight binding. The note with it: protein: recombinant; tags: His6-MBP; chain copies: 2; dsDNA, one strand shown. Put shortly:
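Amylose resin was used to capture complexes formed during 30 min at room temperature in Tris pH 7.5 buffer with NaCl and MgCl2 between 0.4 µM His6-MBP-tagged mouse FoxP3 or FoxP1 fragment lacking the N-terminus, expressed in E. coli, and 0.1 µM Klenow-filled double-stranded degenerate DNA library. After three washes, the DNA was released with proteinase K, barcoded by PCR and sequenced on Illumina. Binding is pooled-replicate reads-per-million enrichment, pull-down over input.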
Take “GATGATTGTTCTCCCAGCTGATGAATTAGCCTTATCGAGTAAACAAATTTTCCTAATCTTTCTGTTCAAGCGCCATCTAC”: the binding signal is 0.917 RPM ratio (pull-down/input).
Regarding “GATGATTGTTCTCCCAGCTGATGAATTCCATTCCTCGAGTAAACAAATTTTCCTAATCTTTCTGTTCAAGCGCCATCTAC”, the binding signal was 0.805 RPM ratio (pull-down/input).
The value for “GATGATTGTTCTCCCAGCTGATGAATTACAGTCGTCGAGTAAACAAATTTTCCTAATCTTTCTGTTCAAGCGCCATCTAC” was 1.05 RPM ratio (pull-down/input); that for “GATGATTGTTCTCCCAGCTGATGAATTACGATGCTCGAGTAAACAAATTTTCCTAATCTTTCTGTTCAAGCGCCATCTAC” was 1.18 RPM ratio (pull-down/input); that for “GATGATTGTTCTCCCAGCTGATGAATTCCGCAAATCGAGTAAACAAATTTTCCTAATCTTTCTGTTCAAGCGCCATCTAC” was 1.06 RPM ratio (pull-down/input).
Then “GATGATTGTTCTCCCAGCTGATGAATTCACGTGCTCGAGTAAACAAATTTTCCTAATCTTTCTGTTCAAGCGCCATCTAC”, with 0.87 RPM ratio (pull-down/input).
For “GATGATTGTTCTCCCAGCTGATGAATTCCTACACTCGAGTAAACAAATTTTCCTAATCTTTCTGTTCAAGCGCCATCTAC”, the binding signal is 0.863 RPM ratio (pull-down/input).
As to “GATGATTGTTCTCCCAGCTGATGAATTTATGGCGTCGAGTAAACAAATTTTCCTAATCTTTCTGTTCAAGCGCCATCTAC”, the binding signal was 1.12 RPM ratio (pull-down/input).
“GATGATTGTTCTCCCAGCTGATGAATTGTGAATGTCGAGTAAACAAATTTTCCTAATCTTTCTGTTCAAGCGCCATCTAC”: the binding signal is 1.03 RPM ratio (pull-down/input).
As for “GATGATTGTTCTCCCAGCTGATGAATTATATCATTCGAGTAAACAAATTTTCCTAATCTTTCTGTTCAAGCGCCATCTAC”, the binding signal was 1.15 RPM ratio (pull-down/input).
As to “GATGATTGTTCTCCCAGCTGATGAATTAAGCCCGTCGAGTAAACAAATTTTCCTAATCTTTCTGTTCAAGCGCCATCTAC”, the binding signal is 0.806 RPM ratio (pull-down/input).
“GATGATTGTTCTCCCAGCTGATGAATTGGCATACTCGAGTAAACAAATTTTCCTAATCTTTCTGTTCAAGCGCCATCTAC”: the binding signal is 0.976 RPM ratio (pull-down/input).
Then “GATGATTGTTCTCCCAGCTGATGAATTCTCTCATTCGAGTAAACAAATTTTCCTAATCTTTCTGTTCAAGCGCCATCTAC”, with 0.862 RPM ratio (pull-down/input); and “GATGATTGTTCTCCCAGCTGATGAATTGACCGCATCGAGTAAACAAATTTTCCTAATCTTTCTGTTCAAGCGCCATCTAC”, with 1.2 RPM ratio (pull-down/input).
Then “GATGATTGTTCTCCCAGCTGATGAATTAATAGGTTCGAGTAAACAAATTTTCCTAATCTTTCTGTTCAAGCGCCATCTAC”, with 0.996 RPM ratio (pull-down/input); and “GATGATTGTTCTCCCAGCTGATGAATTGCCCCCCTCGAGTAAACAAATTTTCCTAATCTTTCTGTTCAAGCGCCATCTAC”, with 0.882 RPM ratio (pull-down/input).
For the sequence “GATGATTGTTCTCCCAGCTGATGAATTAATGTCGTCGAGTAAACAAATTTTCCTAATCTTTCTGTTCAAGCGCCATCTAC”, the binding signal was 1.06 RPM ratio (pull-down/input).
“GATGATTGTTCTCCCAGCTGATGAATTATATCCGTCGAGTAAACAAATTTTCCTAATCTTTCTGTTCAAGCGCCATCTAC”: the binding signal was 0.992 RPM ratio (pull-down/input).
In the case of “GATGATTGTTCTCCCAGCTGATGAATTGATAAGATCGAGTAAACAAATTTTCCTAATCTTTCTGTTCAAGCGCCATCTAC”, the binding signal is 1.01 RPM ratio (pull-down/input).
Then “GATGATTGTTCTCCCAGCTGATGAATTTTGTCATTCGAGTAAACAAATTTTCCTAATCTTTCTGTTCAAGCGCCATCTAC”, with 1.22 RPM ratio (pull-down/input); and “GATGATTGTTCTCCCAGCTGATGAATTCTCCAGTTCGAGTAAACAAATTTTCCTAATCTTTCTGTTCAAGCGCCATCTAC”, with 0.876 RPM ratio (pull-down/input).
Then “GATGATTGTTCTCCCAGCTGATGAATTTGCAGATTCGAGTAAACAAATTTTCCTAATCTTTCTGTTCAAGCGCCATCTAC”, with 0.98 RPM ratio (pull-down/input).
Then “GATGATTGTTCTCCCAGCTGATGAATTCCTTCGTTCGAGTAAACAAATTTTCCTAATCTTTCTGTTCAAGCGCCATCTAC”, with 0.849 RPM ratio (pull-down/input).
With “GATGATTGTTCTCCCAGCTGATGAATTATATGCTTCGAGTAAACAAATTTTCCTAATCTTTCTGTTCAAGCGCCATCTAC”, the binding signal is 1.04 RPM ratio (pull-down/input).
“GATGATTGTTCTCCCAGCTGATGAATTTGACAAATCGAGTAAACAAATTTTCCTAATCTTTCTGTTCAAGCGCCATCTAC”: the binding signal is 1.07 RPM ratio (pull-down/input).
With “GATGATTGTTCTCCCAGCTGATGAATTATCGTTCTCGAGTAAACAAATTTTCCTAATCTTTCTGTTCAAGCGCCATCTAC”, the binding signal was 0.944 RPM ratio (pull-down/input).
As for “GATGATTGTTCTCCCAGCTGATGAATTGATAATTTCGAGTAAACAAATTTTCCTAATCTTTCTGTTCAAGCGCCATCTAC”, the binding signal is 1.09 RPM ratio (pull-down/input).
As for “GATGATTGTTCTCCCAGCTGATGAATTTGTCTGGTCGAGTAAACAAATTTTCCTAATCTTTCTGTTCAAGCGCCATCTAC”, the binding signal was 0.964 RPM ratio (pull-down/input).
Consider “GATGATTGTTCTCCCAGCTGATGAATTGGCAAACTCGAGTAAACAAATTTTCCTAATCTTTCTGTTCAAGCGCCATCTAC”, for which the binding signal was 0.927 RPM ratio (pull-down/input).
For the sequence “GATGATTGTTCTCCCAGCTGATGAATTGATGCGTTCGAGTAAACAAATTTTCCTAATCTTTCTGTTCAAGCGCCATCTAC”, the binding signal was 1.41 RPM ratio (pull-down/input).
As to “GATGATTGTTCTCCCAGCTGATGAATTACGAGAATCGAGTAAACAAATTTTCCTAATCTTTCTGTTCAAGCGCCATCTAC”, the binding signal was 1.08 RPM ratio (pull-down/input).
“GATGATTGTTCTCCCAGCTGATGAATTTGCCTAGTCGAGTAAACAAATTTTCCTAATCTTTCTGTTCAAGCGCCATCTAC”: the binding signal was 0.83 RPM ratio (pull-down/input).
As for “GATGATTGTTCTCCCAGCTGATGAATTGCTGAGATCGAGTAAACAAATTTTCCTAATCTTTCTGTTCAAGCGCCATCTAC”, the binding signal is 0.969 RPM ratio (pull-down/input).
On to “GATGATTGTTCTCCCAGCTGATGAATTCGGTTCCTCGAGTAAACAAATTTTCCTAATCTTTCTGTTCAAGCGCCATCTAC”, for which the binding signal is 0.807 RPM ratio (pull-down/input).
On to “GATGATTGTTCTCCCAGCTGATGAATTTTTAACCTCGAGTAAACAAATTTTCCTAATCTTTCTGTTCAAGCGCCATCTAC”, for which the binding signal was 0.865 RPM ratio (pull-down/input).
The value for “GATGATTGTTCTCCCAGCTGATGAATTGGTGCGCTCGAGTAAACAAATTTTCCTAATCTTTCTGTTCAAGCGCCATCTAC” was 0.923 RPM ratio (pull-down/input); that for “GATGATTGTTCTCCCAGCTGATGAATTTCGGGGATCGAGTAAACAAATTTTCCTAATCTTTCTGTTCAAGCGCCATCTAC” was 0.808 RPM ratio (pull-down/input); that for “GATGATTGTTCTCCCAGCTGATGAATTCTTCCACTCGAGTAAACAAATTTTCCTAATCTTTCTGTTCAAGCGCCATCTAC” was 0.895 RPM ratio (pull-down/input).
Turning to “GATGATTGTTCTCCCAGCTGATGAATTTCTGTGATCGAGTAAACAAATTTTCCTAATCTTTCTGTTCAAGCGCCATCTAC”, the binding signal is 1.02 RPM ratio (pull-down/input).
As for “GATGATTGTTCTCCCAGCTGATGAATTCCCCTGGTCGAGTAAACAAATTTTCCTAATCTTTCTGTTCAAGCGCCATCTAC”, the binding signal is 0.72 RPM ratio (pull-down/input).
